Data reported in PubChem BioAssay AID504332 (National Center for Advancing Translational Sciences (NCATS), 2011).
The campaign covered roughly 350,000 compounds. About 31,000 (8.9%) were called active. Inconclusive results, whose numbers are uncertain, are shown with a selection of clear calls. Calls follow the shape of the dose curve; as a rule, active = well fitted inhibition curve with a large enough effect; inconclusive = small, poorly fitted or top-dose-only effect; inactive = no such curve, though single readings can be large or run the other way. Where the call is inconclusive, the potency comes from a doubtful curve fit.

Biological target: Histone-lysine N-methyltransferase EHMT2 (Homo sapiens) (UniProt Q96KQ7)
Sequence of UniProt Q96KQ7 (Q96KQ7 whole entry, looked up): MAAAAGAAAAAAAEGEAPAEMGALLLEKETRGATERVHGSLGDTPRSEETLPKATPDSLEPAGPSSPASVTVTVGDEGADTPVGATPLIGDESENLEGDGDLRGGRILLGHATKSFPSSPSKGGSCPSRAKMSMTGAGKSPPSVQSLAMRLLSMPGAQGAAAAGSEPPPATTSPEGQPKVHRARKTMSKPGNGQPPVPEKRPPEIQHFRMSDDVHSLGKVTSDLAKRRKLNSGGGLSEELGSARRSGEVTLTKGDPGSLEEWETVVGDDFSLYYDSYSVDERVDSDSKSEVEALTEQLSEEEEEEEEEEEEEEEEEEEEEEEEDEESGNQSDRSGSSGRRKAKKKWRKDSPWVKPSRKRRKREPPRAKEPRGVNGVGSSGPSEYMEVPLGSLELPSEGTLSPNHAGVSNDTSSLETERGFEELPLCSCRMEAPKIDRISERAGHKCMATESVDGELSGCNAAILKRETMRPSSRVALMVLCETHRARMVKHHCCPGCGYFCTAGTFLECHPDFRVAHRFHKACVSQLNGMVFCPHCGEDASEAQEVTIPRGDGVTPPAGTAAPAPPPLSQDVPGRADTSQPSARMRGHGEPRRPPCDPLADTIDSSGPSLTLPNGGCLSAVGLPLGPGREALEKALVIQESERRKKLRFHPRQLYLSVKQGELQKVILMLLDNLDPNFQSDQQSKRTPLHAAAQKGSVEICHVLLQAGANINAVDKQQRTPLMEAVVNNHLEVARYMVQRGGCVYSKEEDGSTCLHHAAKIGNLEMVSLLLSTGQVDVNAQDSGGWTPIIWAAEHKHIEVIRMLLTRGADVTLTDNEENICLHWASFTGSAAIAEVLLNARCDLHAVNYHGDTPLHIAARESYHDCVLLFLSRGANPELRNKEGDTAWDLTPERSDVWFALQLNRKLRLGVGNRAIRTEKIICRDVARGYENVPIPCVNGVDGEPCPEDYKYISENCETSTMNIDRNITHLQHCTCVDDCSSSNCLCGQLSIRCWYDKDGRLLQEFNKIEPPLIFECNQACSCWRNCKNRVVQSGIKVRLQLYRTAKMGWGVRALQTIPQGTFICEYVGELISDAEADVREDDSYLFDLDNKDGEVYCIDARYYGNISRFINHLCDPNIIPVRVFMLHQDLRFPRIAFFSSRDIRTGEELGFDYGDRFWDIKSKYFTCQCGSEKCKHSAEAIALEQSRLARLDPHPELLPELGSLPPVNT
Experiment: qHTS Assay for Inhibitors of Histone Lysine Methyltransferase G9a; also: nearly all actives have a fitted effect of over 75% in size
Conditions: G9a H3K9 monomethylation, AlphaScreen, 2 h; activity, negative = inhibition: at 59 µM (top of the series) unless noted
How it was run: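 G9a (20 nM) was preincubated 15 min with compound, then reacted 2 h at room temperature with 500 nM biotin-H3K9 peptide and 20 µM SAM. Monomethyl-H3K9 detected by AlphaScreen using anti-H3K9me1 antibody.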
% is scaled to controls: 0 for no effect and ±100 for the full control effect; potency is read from the fitted curve at half-maximal effect; tags tell the direction and shape of the fitted curve.

How did the Potency turn out when CN1CCCCCC1=Nc1ccccc1C#N was run?
The Potency was inconclusive: 3.98 µM [inhibitor, partial curve, poor fit].

Which Potency does the source give for Cc1ccc(/C=C/C(=O)O)cc1S(=O)(=O)N(CCO)CCO here?
Its Potency is inconclusive: 89.1 µM [inhibitor, single point].

Which Potency does the source give for CSc1sc(C(=O)O)c(C)c1C(C)=O here?
Its Potency is inconclusive: 89.1 µM [inhibitor, single point].

How did the Potency turn out when CCN1CCN(C(=O)c2ccc3c(c2)N(Cc2cccc(F)c2)C(=O)c2ccccc2S3)CC1 was run?
Its Potency is inconclusive: 12.6 µM [inhibitor, partial curve, poor fit].

How did the activity, negative = inhibition turn out when O=C(O)CSc1cc(C(=O)c2ccccc2O)cn2c(=O)c3c4c(sc3nc12)CCCC4 was run?
The activity, negative = inhibition was inconclusive: -74.7% [inhibitor].

For Cc1c(CC(=O)O)c(=O)oc2c(C)c3occ(-c4ccccc4)c3cc12, which Potency is on record?
Its Potency is inconclusive: 0.631 µM [inhibitor, partial curve, poor fit].

For CCCCNC(=O)CCCCCn1c(=O)[nH]c2cc(C(=O)OC)ccc2c1=O, which Potency is on record?
Its Potency is inconclusive: 79.4 µM [inhibitor, partial curve, poor fit].

With CCOC(=O)c1cc(-c2ccc(C)cc2)n(CCC(=O)Nc2ccc(OC)c(OC)c2)c1C as the molecule, how does the Potency read?
Its Potency is inconclusive: 31.6 µM [inhibitor, single point].

For Cc1c(N2C(=O)/C(=C\c3ccccc3O)SC2=S)c(=O)n(-c2ccccc2)n1C, which Potency is on record?
The Potency was active: 1.78 µM.

CCOC(=O)C1CCN(S(=O)(=O)c2ccc3c(c2)NC(=O)C(C)C(=O)N3)CC1 (centres undefined) was tested. Which Potency did it give?
The Potency was “inactive”.

With CC1CCN(C(=O)COC(=O)CCC(=O)c2cccs2)CC1 as the molecule, how does the Potency read?
Its Potency is “inactive”.

Which Potency does the source give for N#CCCN(Cc1cccnc1)C(=S)NC(=O)C1CC1 here?
The Potency was inconclusive: 79.4 µM [inhibitor, single point].

How did the Potency turn out when O=C1CCCCCN1Cc1nnc(SCc2nc3ccccc3s2)n1-c1ccccn1 was run?
The Potency was active: 50.1 µM.

How did the Potency turn out when COC(=O)c1ccc(/C=N/Nc2nc(-c3ccc(Cl)cc3Cl)cs2)cc1 was run?
Its Potency is active: 50.1 µM.

COc1ccc(-c2nc3n(n2)C(=O)CC(c2ccc(Cl)cc2)S3)cc1 (centres undefined) was tested. Which Potency did it give?
The Potency was inconclusive: 22.4 µM [inhibitor, single point].

Which Potency does the source give for CC(C)N1CCc2c(sc(NC(=O)c3nc4ccccc4s3)c2C(N)=O)C1 here?
Its Potency is active: 44.7 µM.

For CCC(C)NC(=O)C1CCC(CNS(=O)(=O)c2ccc(Cl)cc2)CC1 (centres undefined), which Potency is on record?
Its Potency is “inactive”.

How did the Potency turn out when CCc1nnc(NC(=O)c2ccc(-c3cccc(C(F)(F)F)c3)o2)s1 was run?
The Potency was inconclusive: 7.94 µM [inhibitor, partial curve, poor fit].

Which Potency does the source give for FC(F)(F)c1nc2ccccc2n2c(-c3ccc(Cl)cc3)nnc12 here?
Its Potency is “inactive”.

For O=C(CCCc1ccccc1)Nc1ccnn1C1CCN(Cc2ccc(Cl)cc2)CC1, which Potency is on record?
Its Potency is “inactive”.

CCC1=NN2C(=N)/C(=C\c3ccc(OCc4cc(=O)n5nc(CC)sc5n4)c(OC)c3)C(=O)N=C2S1 was tested. Which Potency did it give?
Its Potency is inconclusive: 44.7 µM [inhibitor, partial curve].

For CCS(=O)(=O)CCSc1nc(-c2ccc(Br)cc2)cc(-c2ccccc2)c1C#N, which Potency is on record?
The Potency was inconclusive: 11.2 µM [inhibitor, partial curve, poor fit].

Which Potency does the source give for CCOc1cc(C(=O)Nc2ccc(-c3nc4ncccc4o3)cc2C)cc(OCC)c1OCC here?
The Potency was “inactive”.

How did the Potency turn out when Cc1cccc(NC(=O)CCn2nc(-c3ccccc3)c3ccccc3c2=O)c1 was run?
Its Potency is “inactive”.

How did the Potency turn out when CC(C)[C@H](NC(=O)N1CC(=O)Nc2ccccc21)C(=O)N1CCC[C@H]1C(=O)O was run?
The Potency was inconclusive: 100 µM [inhibitor, single point].

Which Potency does the source give for CCOc1ccc(-c2noc(CCCC(=O)NCC3CCCO3)n2)cc1OC (centres undefined) here?
Its Potency is inconclusive: 89.1 µM [inhibitor, single point].

How did the Potency turn out when CCOc1cc(/C=N/NS(=O)(=O)c2ccccc2)ccc1OS(=O)(=O)c1ccc(C)cc1 was run?
The Potency was active: 11.2 µM.

How did the Potency turn out when CN1/C(=C\C(=O)COC(=O)c2ccc(O)c(O)c2)C(C)(C)c2ccccc21 was run?
Its Potency is inconclusive: 50.1 µM [inhibitor, partial curve, poor fit].

For NS(=O)(=O)c1ccc(CCNCc2ccccc2OCc2ccc(Cl)cc2)cc1, which Potency is on record?
Its Potency is inconclusive: 89.1 µM [inhibitor, single point].

How did the Potency turn out when CCOC(=O)c1cnc2ccccc2c1Nc1ccc(C(=O)O)cc1 was run?
Its Potency is inconclusive: 44.7 µM [inhibitor, partial curve].

Which Potency does the source give for CCN(CC)S(=O)(=O)c1ccc(C(=O)NCc2n[nH]c(=S)n2-c2ccc(Cl)c(Cl)c2)cc1 here?
The Potency was active: 15.8 µM.

Which activity, negative = inhibition does the source give for O=C(CCn1nnc2ccccc21)Nc1nnc(Cc2ccccc2)s1 here?
The activity, negative = inhibition was inconclusive: -80.1% [inhibitor].

COc1ccccc1CNC(=O)CCCCn1c(=O)c2ccccc2n(CC(=O)Nc2cc(Cl)ccc2C)c1=O was tested. Which Potency did it give?
Its Potency is “inactive”.

Cn1c(COc2ccc(Br)cc2)nnc1SC1CCc2ccccc2C1=O (centres undefined) was tested. Which Potency did it give?
The Potency was inconclusive: 39.8 µM [inhibitor, single point].

For Cc1cccc(C(=O)NCc2nnc(SCC(=O)Nc3nnc(C)s3)n2C)c1, which Potency is on record?
The Potency was inconclusive: 7.08 µM [inhibitor, partial curve, poor fit].

How did the Potency turn out when CC(CNc1ccccc1O)C(=O)O (centres undefined) was run?
The Potency was active: 15.8 µM.

How did the Potency turn out when Nc1c(N(Cc2ccco2)C(=O)COc2ccccc2F)c(=O)[nH]c(=O)n1Cc1ccccc1 was run?
The Potency was inconclusive: 31.6 µM [inhibitor, single point].

Which Potency does the source give for Nc1nonc1C(=O)N/N=C/c1ccc(Br)o1 here?
The Potency was “inactive”.

Which Potency does the source give for O=C(Nc1ccccc1Br)C1CC(=O)N(c2ccc3c4c(cccc24)CC3)C1 (centres undefined) here?
Its Potency is “inactive”.

For C=CCNC(=O)c1ccc(-c2nc(-c3ccccc3)cs2)cc1, which activity, negative = inhibition is on record?
The activity, negative = inhibition was inconclusive: -55.1% [inhibitor] [at 12.7 µM].

Which Potency does the source give for COc1ccc(Br)cc1/C=N/NC(=O)c1ccc(COc2ccc3c(c2)CCC3)o1 here?
Its Potency is “inactive”.

CCCn1c(C(O)c2ccc(OC)cc2)nc2ccccc21 (centres undefined) was tested. Which Potency did it give?
Its Potency is inconclusive: 28.2 µM [inhibitor, single point].

COc1ccc(Nc2ccc(C(F)(F)F)cc2[N+](=O)[O-])cn1 was tested. Which Potency did it give?
The Potency was inconclusive: 20 µM [inhibitor, full curve, poor fit].

How did the Potency turn out when COCCN(C(=O)CSc1nc2ccc(C)cc2[nH]1)c1c(N)n(Cc2ccccc2)c(=O)[nH]c1=O was run?
The Potency was inconclusive: 50.1 µM [inhibitor, single point].
